# Laboratory results: PubChem BioAssay AID1347165 (National Center for Advancing Translational Sciences (NCATS), 2019)
# Screen size: about 220,000 compounds; about 5,700 (2.6%) were called active. The inconclusive results got no clear call from the source; some entries with a clear call stand among them for comparison. The call rests on the fitted dose curve; in most records, active means well fitted inhibition curve with a large enough effect; inconclusive means small, poorly fitted or top-dose-only effect; inactive means no such curve, though single readings can be large or run the other way. Potencies beside an inconclusive call are fits to weak or partial responses and may not hold up.
# Target: Lysine-specific demethylase 5B (Homo sapiens) (UniProt Q9UGL1)
# Assay: Primary screen for KDM5B Histone Demethylases FDH-coupled qHTS; further: nearly all actives have a fitted effect of over 70% in size; on activity change, negative = inhibition: 0% is about no effect
# Settings: FDH-coupled NADH fluorescence (FDH is formaldehyde dehydrogenase); activity change, negative = inhibition: at 57.7 µM (top of the series) unless noted
# How it was run: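 KDM5BΔAP (200 nM final) in 50 mM HEPES pH 7.5, 0.01% Tween-20 was preincubated 10 min at RT with compound over a concentration range. Substrate mix (H3K4me3 12.5 µM, α-KG 25 µM, Fe²⁺, ascorbate, NAD⁺, FDH) was added, and NADH fluorescence change over 30 min gave dose-response curves.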
# Potency means the concentration at half of the fitted maximal effect; tags describe the fitted curve by direction and shape.
# Sequence of UniProt Q9UGL1 (Q9UGL1 whole entry, looked up): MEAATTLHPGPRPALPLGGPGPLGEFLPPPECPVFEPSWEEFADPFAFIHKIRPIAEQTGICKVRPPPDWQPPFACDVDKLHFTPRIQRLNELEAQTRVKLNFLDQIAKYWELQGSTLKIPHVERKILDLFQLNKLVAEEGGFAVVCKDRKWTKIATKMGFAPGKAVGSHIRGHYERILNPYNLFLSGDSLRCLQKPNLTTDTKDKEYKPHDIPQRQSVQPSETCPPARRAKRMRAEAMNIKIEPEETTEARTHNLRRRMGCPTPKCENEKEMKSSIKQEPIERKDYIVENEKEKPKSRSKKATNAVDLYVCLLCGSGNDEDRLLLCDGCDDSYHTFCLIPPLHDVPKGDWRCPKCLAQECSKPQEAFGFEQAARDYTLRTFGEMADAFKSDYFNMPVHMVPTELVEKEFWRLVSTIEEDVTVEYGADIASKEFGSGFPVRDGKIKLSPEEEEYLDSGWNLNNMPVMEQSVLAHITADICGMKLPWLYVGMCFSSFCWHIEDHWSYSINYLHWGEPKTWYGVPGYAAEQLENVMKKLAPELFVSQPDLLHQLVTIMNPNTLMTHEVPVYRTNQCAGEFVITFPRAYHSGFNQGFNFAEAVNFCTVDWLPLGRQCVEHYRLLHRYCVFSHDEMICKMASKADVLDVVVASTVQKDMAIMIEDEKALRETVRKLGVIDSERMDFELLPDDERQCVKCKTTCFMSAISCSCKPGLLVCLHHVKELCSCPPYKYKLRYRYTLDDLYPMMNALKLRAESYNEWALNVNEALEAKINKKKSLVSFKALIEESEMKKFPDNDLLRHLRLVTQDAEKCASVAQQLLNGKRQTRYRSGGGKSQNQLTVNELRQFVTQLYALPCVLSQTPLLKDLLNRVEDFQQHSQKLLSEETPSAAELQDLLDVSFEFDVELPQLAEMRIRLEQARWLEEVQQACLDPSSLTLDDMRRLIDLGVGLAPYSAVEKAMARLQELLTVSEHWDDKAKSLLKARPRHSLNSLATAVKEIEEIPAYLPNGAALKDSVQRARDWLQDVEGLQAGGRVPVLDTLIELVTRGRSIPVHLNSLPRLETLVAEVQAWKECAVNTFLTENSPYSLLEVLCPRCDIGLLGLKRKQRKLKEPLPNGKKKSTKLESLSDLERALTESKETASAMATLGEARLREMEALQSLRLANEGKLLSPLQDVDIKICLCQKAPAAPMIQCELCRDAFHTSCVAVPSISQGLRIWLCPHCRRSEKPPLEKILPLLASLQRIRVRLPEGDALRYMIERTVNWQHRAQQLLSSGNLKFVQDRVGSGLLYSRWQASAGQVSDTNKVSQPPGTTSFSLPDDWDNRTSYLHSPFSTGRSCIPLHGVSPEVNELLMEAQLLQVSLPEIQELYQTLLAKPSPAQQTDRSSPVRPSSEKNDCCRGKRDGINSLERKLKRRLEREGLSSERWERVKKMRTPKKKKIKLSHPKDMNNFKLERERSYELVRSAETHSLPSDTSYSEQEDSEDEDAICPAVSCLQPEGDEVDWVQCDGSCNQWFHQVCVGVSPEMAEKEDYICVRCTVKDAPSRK
SMILES,Potency,"activity change, negative = inhibition"
O=C(c1cn(-c2ccccc2)nn1)N1CCCCCC1c1ccco1 (stereo not drawn),"inconclusive: 15.8 µM [inhibitor, partial curve, poor fit]",
Cc1c(NC(=O)c2ccc([N+](=O)[O-])cc2)cccc1-c1nc2ccccc2o1,inactive,
COc1ncc(-c2ccnc(-c3nnc(C)n3CCc3ccccc3)c2)cn1,inactive,
c1ccc(CN2CCn3c(nnc3C3CCCNC3)C2)cc1 (stereo not drawn),inactive,
Cc1ccc2nc(C)c(C(=O)NCC(F)(F)F)cc2c1,inactive,
Cc1ccc(S(=O)(=O)NCCc2csc(-c3ccc(Cl)cc3)n2)cc1,"inconclusive: 14.1 µM [inhibitor, partial curve, poor fit]",
Cc1ccccc1N(C)S(=O)(=O)c1nnc(NC(=O)c2ccccc2F)s1,"inconclusive: 25.1 µM [inhibitor, partial curve, poor fit]",
C[C@@H]1CN(c2ccc3nnc(-c4ccccn4)n3n2)C[C@H](C)O1,"inconclusive: 35.5 µM [inhibitor, partial curve, poor fit]",
COc1cc(CN2CCc3nc(N4CCN(c5ncccn5)CC4)ncc3C2)cc(OC)c1OC,"inconclusive: 22.4 µM [inhibitor, partial curve, poor fit]",
Cc1cc(C)cc(NC(=O)Cn2c(=O)n(-c3cc(C)cc(C)c3)c(=O)c3oc4ccccc4c32)c1,"inconclusive: 2 µM [inhibitor, partial curve, poor fit]",
CC(C)c1nnc(NC(=O)c2cc(=O)c3cc(Cl)ccc3o2)s1,inactive,
Cc1ccc(N2CCC(NC(=O)CC(C)C)C2=O)cc1C (stereo not drawn),inactive,
Cc1cn2nnc(C(=O)N3CCC(C(=O)Nc4ccc(C(C)C)cc4)CC3)c2c(=O)[nH]1,inactive,
Cn1ncc2c(NCc3ccccc3Cl)nc(NCCO)nc21,"inconclusive: 44.7 µM [inhibitor, single point]",
CN1CC(=O)N(C2CCCNCC2)Cc2c(NCc3cccs3)ncnc21 (stereo not drawn),"inconclusive: 39.8 µM [inhibitor, partial curve]",
COc1ccc2c(c1)c1c(c(=O)n(-c3ccccc3)c(=O)n1CC(=O)NCCC1=CCCCC1)n2C,"inconclusive: 28.2 µM [inhibitor, partial curve, poor fit]",
Cc1ccccc1OCC(=O)Nc1ccccc1C(=O)OCc1cc(=O)n2ccsc2n1,"inconclusive: 28.2 µM [inhibitor, single point]",
CC(C)c1cc(C(=O)NC2CC2)c2cnn(C(C)C)c2n1,"inconclusive: 35.5 µM [inhibitor, partial curve, poor fit]",
N#Cc1cccc(S(=O)(=O)Nc2c(NC3CCCC3)c3ccccc3oc2=O)c1,inactive,
COc1ccccc1N1CCCc2ncc(C(=O)N3CCCC[C@@H]3c3ccccc3)cc21,"inconclusive: 35.5 µM [inhibitor, partial curve, poor fit]",
CCCCn1nc(C(=O)Nc2nccs2)c2ccccc2c1=O,inactive,
CCOC(=O)c1oc2cc(OC(=O)c3ccc(OC)cc3)ccc2c(=O)c1-c1ccccc1OC,inactive,

SMILES,Potency,"activity change, negative = inhibition"
COc1ccc(F)cc1S(=O)(=O)NCC(c1ccco1)S(=O)(=O)c1ccc(F)cc1 (stereo not drawn),,inconclusive: -30.3% [inhibitor]
Cc1ccc(-n2ncc3c(NCC4CCCO4)ncnc32)cc1 (stereo not drawn),"inconclusive: 25.1 µM [inhibitor, partial curve, poor fit]",
COc1ccc(OCc2nc(C3CN(C(=O)c4cccn4C)C3)no2)cc1,inactive,
CCOc1ccccc1CN1CCCCCNC(=O)[C@@H]2CCC[C@@H]21,"inconclusive: 12.6 µM [inhibitor, partial curve, poor fit]",
FC(F)(F)c1cccc(-c2cc(C3=CCOCC3)c3cncn3c2)c1,active: 35.5 µM,
CC(=O)NCCC(=O)N1CCOc2c(O)cc(-c3cccc(Cl)c3)cc2C1,inactive,
NC(=S)N/N=C/c1ccccc1O,"inconclusive: 25.1 µM [inhibitor, partial curve, poor fit]",
CCCC(=O)Nc1ccc2oc(-c3cccnc3)nc2c1,"inconclusive: 28.2 µM [inhibitor, partial curve, poor fit]",
CCc1noc(-c2ccc(NCc3ccccc3)c([N+](=O)[O-])c2)n1,,inconclusive: -32.4% [inhibitor]
CN(C(=O)Cc1c[nH]c2ncc(-c3cnn(C)c3)cc12)c1ccccc1,"inconclusive: 39.8 µM [inhibitor, single point]",
CC(C)NC(=O)CSc1ncc(-c2cccc(Br)c2)o1,inactive,
Cc1cccc(C(=O)N2CC(Oc3cccc(-c4nc(-c5ccccc5)no4)c3)C2)c1,"inconclusive: 31.6 µM [inhibitor, partial curve, poor fit]",
C=CCNC(=O)NC(=O)COC(=O)c1cc(-c2cccs2)nc2ccccc12,"inconclusive: 31.6 µM [inhibitor, partial curve, poor fit]",
O=C1CCN(C(=O)c2ccccc2)CCCC(C(=O)NCCCN2CCCc3ccccc32)CCN1 (stereo not drawn),"inconclusive: 25.1 µM [inhibitor, single point]",
CC(C)Oc1ccccc1CN1CCC2(CC1)CN(c1ncccn1)CC2CO (stereo not drawn),"inconclusive: 31.6 µM [inhibitor, partial curve, poor fit]",
CCc1ccc(OCC(=O)N(Cc2ccco2)Cc2ccccc2Cl)cc1,,inconclusive: -34.2% [inhibitor]
CCCc1cc(CNC(=O)c2ccc(N3CCCC(CNC(C)=O)C3)nc2)on1 (stereo not drawn),inactive,
O=C(Nc1ccc2c(c1)CCC2)c1cc2c(s1)CN(C1CC1)C2,"inconclusive: 10 µM [inhibitor, partial curve, poor fit]",
COC(=O)CC(NC(=O)c1nn(C)c(=O)c2ccccc12)c1ccccc1 (stereo not drawn),inactive,
CC(=O)c1c(C)[nH]c(-c2csc(-c3cccc(F)c3)n2)c1C,"inconclusive: 31.6 µM [inhibitor, partial curve, poor fit]",
O=C(COc1ccccc1Cl)Nc1ccc(Cl)c(-c2nc3ccccc3o2)c1,"inconclusive: 15.8 µM [inhibitor, partial curve, poor fit]",
